Paper PMC12136788
This is one part of the list.

B1: chr15:89832191:89832292:-|3pUTR|ENSG00000157823|msi1|FALSE|unique (ssRNA)
RNA: GGGAGUUCUACAGUCCGACGAUCCUAGGUAGCUGGAACCACAGGCACGCAACCACCACUCCUGGCUAGUUUUAUUUUUUUAGUAGAAUAAGGUCUCACUAUGUUGCACAGGCUGGUCUCUAACUCCUUACCUCAAGCCAUCCUCAACAGAGGAUUGAGCAUCA
B2: chr10:80519475:80519574:+|3pUTR|ENSG00000108219|msi1_unk|FALSE|overlapping (ssRNA)
RNA: GGGAGUUCUACAGUCCGACGAUCAGUGUGGUGUAUACUGGUGGCUGUUGAUGAUGAUUUUUUUUUUUUUACACAAUUCUCUGUAGACUAGGAGAAGAAUGCUUGUGUUUUUCGGAAGUGUGAUGCUUCUCUUUGACUGCCAAACAACAGAGGAUUGAGCAUCA
B3: chr16:2708819:2708933:+|3pUTR|ENSG00000167977|unk|total|mutant (ssRNA)
RNA: GGGAGUUCUACAGUCCGACGAUCCUCUCUGGGGAGCUGCUGGCCGCUCCGCGUUGUUUGAUUUUUGACCUUGACACCGCCGACCGGCUUGUGGUUUUUUUAAUUUAAAGAUAUUAAGACUUAAUUCACUAAAAUUUAUUCUAACAACAGAGGAUUGAGCAUCA
B4: chr11:74254050:74254151:+|3pUTR|ENSG00000214517|unk|FALSE|unique (ssRNA)
RNA: GGGAGUUCUACAGUCCGACGAUCUUGGAAGACCCAGAGAGGCCAAGAUCCCAUCCUUAGCCAUAGCGAGCGGUGGUGGUGGAUAGCAUCACAAGAAACGAGCCUGAAAAUCAGGUCCAGCCGGUCCAAGCACAUGGCCUCCCACAACAGAGGAUUGAGCAUCA
B5: chr11:4681751:4682711:-|CDS|ENSG00000167332|control|control|control (ssRNA)
RNA: GGGAGUUCUACAGUCCGACGAUCUUAUCCACAUCCACCAUGCCUAAGAUCCUUGCCCUUUUCUGGUUUGAUUCCCGAGAGAUUAGCUUUGAGGCCUGUCUUACCCAGAUGUUCUUUAUUCAUGCCCUCUCAGCCAUUGAAUCCCAACAGAGGAUUGAGCAUCA
B6: chr14:75134619:75134720:-|3pUTR|ENSG00000170348|msi1|total|mutant (ssRNA)
RNA: GGGAGUUCUACAGUCCGACGAUCAACAAGUCAAUGAGGGACUUCUUUUUAAUUUGGCCGGAUUUUGACUGGUUUUGCAACAACCGGUCUAUUAUCCGAGUCACCUAUGACAAAAAACCGGGGUUACCCCGAUAAUGCCAAAGUCAACAGAGGAUUGAGCAUCA
B7: chr17:47844907:47847298:-|three_prime_utr|ENSG00000189120|control|control|control (ssRNA)
RNA: GGGAGUUCUACAGUCCGACGAUCAAGGUGCGUAUUUAUUCAGGGAGGAGGAAAAGUGGUGCAGGGACAGGGAGAUGGGGCGCUAGGGGUUCUUAGUCUCUGGGGCUACUAGGCAGGAUGAAUUUGACUGGGUCGGUAGGAGCUCAACAGAGGAUUGAGCAUCA
B8: chr1:235977234:235977335:-|3pUTR|ENSG00000116962|msi1|FALSE|unique (ssRNA)
RNA: GGGAGUUCUACAGUCCGACGAUCGUCUAAGACCCCCAUUAUAAUAUUCAUGCGCUGCUUUUUCAUCAAAACCUACCCUGUCCUAGAGAUCUAUGGGCAUUUGGUGGAUGAUAAUGAGCAGCCCCUCCCAGAUAGAAUGUCAAUCAACAGAGGAUUGAGCAUCA
B9: chr1:236581285:236581397:-|CDS|ENSG00000119285|unk|total|mutant (ssRNA)
RNA: GGGAGUUCUACAGUCCGACGAUCCAUCCCGAAGAUGUUUUUCAGUUAUUCAAGUUCUGUUCUGUUUUAUGGACCUAUGGUUCCCGCCUUUCAAAUCCACUAAACUGCAGUGUGAAAACAGUGCUGCAGACUCAAGCUCUUUAUCAACAGAGGAUUGAGCAUCA
B10: chr2:206311781:206311882:+|3pUTR|ENSG00000204186|unk|FALSE|unique (ssRNA)
RNA: GGGAGUUCUACAGUCCGACGAUCUAGUGUUUAGAGUCCUUUCAUUUUAAGAUUCAGAAACAGCCUUUGUCCAACAUUUUCUGUAGAAGAACUUCAUCUUAAUUUAUGUCACAAAAUAAUUUAGCACCGUAUAUAGAAUUUUGUCAACAGAGGAUUGAGCAUCA
B11: ENSG00000107863:be:win_4601|CDS|ENSG00000107863|bound_else_gene|NA|bound_elsewhere_windowed (ssRNA)
RNA: GGGAGUUCUACAGUCCGACGAUCAGAAGUCCUCCCACCUUGAAGAGACAGGCUCUGACUCUGGCACUUUGCUCAGCACGUCUUCCCAGGCCUCCCUGGCAAGGUUUUCCAUGAAGAAAUCAACCAGUCCAGAAACGAAACAUACAACAGAGGAUUGAGCAUCA
B12: chr12:2849045:2849230:-|three_prime_utr|ENSG00000283297|control|control|control (ssRNA)
RNA: GGGAGUUCUACAGUCCGACGAUCCCCAGAGCCCCAGGCUCCAGUGUUCUCAAUCAAUGCUCCUUCAGCAAGAGGCCCUGGGGUAGCAAAAGGACUCUGGCUUCUGCAGAACAGCCUCUCCACCAUCCUCCCAGCCUCAAGCCACAACAGAGGAUUGAGCAUCA
B13: chr12:64147824:64147925:+|3pUTR|ENSG00000196935|unk|FALSE|unique (ssRNA)
RNA: GGGAGUUCUACAGUCCGACGAUCCAUCUCUGUGGUGUCUUUGUUCCUUUCCUUUCAUUCAUCACUACUUUCUCCUUGACAGCUAGCUUGCAUUAAAUAAUGUGAAACUUUUACCUUUAAAAUAUUUUUUUAUCUCACUUUCAUCAACAGAGGAUUGAGCAUCA
B14: chr5:72207927:72208036:+|3pUTR|ENSG00000131711|msi1_unk|total|mutant (ssRNA)
RNA: GGGAGUUCUACAGUCCGACGAUCUUUUUUUUUUUUUUUUUUUGCUAUGGGAUUUAAUGGGAAAAAUAUGUAAAAACUGUCACCCGUCAGCUGGCUCUUUUUCCUAUGAAAUCUAUCAGUACCUUUCUCCAUCCGUUGUUCUCACAACAGAGGAUUGAGCAUCA

Molecular target: T1, UNK ZnF1-6 (called full-length) (human, UniProt Q9C0B0 30-357)
T1 sequence: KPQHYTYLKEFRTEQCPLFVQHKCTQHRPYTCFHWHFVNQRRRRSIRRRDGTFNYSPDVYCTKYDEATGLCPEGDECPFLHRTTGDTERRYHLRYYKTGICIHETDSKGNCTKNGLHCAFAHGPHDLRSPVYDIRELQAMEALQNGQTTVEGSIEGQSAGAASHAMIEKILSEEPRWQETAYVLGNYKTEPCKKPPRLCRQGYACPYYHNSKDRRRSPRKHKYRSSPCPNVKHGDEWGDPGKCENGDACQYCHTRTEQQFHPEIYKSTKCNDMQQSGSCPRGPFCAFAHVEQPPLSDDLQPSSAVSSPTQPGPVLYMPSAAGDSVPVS
Assay: nsRBNS (natural sequence RNA bind-n-seq); RBNS binding buffer (assumed for nsRBNS): 25 mM Tris pH 7.5, 150 mM KCl, 3 mM MgCl2, 0.01% Triton X-100, 500 ug/ml BSA, 20 U/ml SUPERase-In, 4 C; UNK is unkempt and MSI1 is Musashi-1; names of the RNAs are library labels; protein concentration not given here; high values mean tight binding

Binder | binding signal
B1 | 3.98 enrichment R
B2 | 0.661 enrichment R
B3 | 2.05 enrichment R
B4 | 0.682 enrichment R
B5 | 0.548 enrichment R
B6 | 0.275 enrichment R
B7 | 1.32 enrichment R
B8 | 3.15 enrichment R
B9 | 0.314 enrichment R
B10 | 11.6 enrichment R
B11 | 0.584 enrichment R
B12 | 0.665 enrichment R
B13 | 10.6 enrichment R
B14 | 2.42 enrichment R
